Measurements taken from the supplement of paper PMC3334620.
The full ranking holds about 33,000 sequences; the median of “E-score (-0.5 to 0.5)” is about -0.054, and the highest 2% start at about 0.39. The list shows a part of the results.

Each sequence was assayed against Ylr278c (UniProt Q05854) (assay: PBM E-score (8-mer binding enrichment) (E-score (-0.5 to 0.5)); higher = stronger / more preferred TF binding; most listed sequences are background and not binding sites). Details: protein concentration: 200 nM; construct: GST-DNA-binding domain.
In short: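 E-scores (a modified Wilcoxon-Mann-Whitney statistic) were assigned by the Universal PBM Analysis Suite to every ungapped eight-base word pooled with its reverse complement. The input came from universal all-10-mer Agilent arrays made double-stranded by primer extension and probed with GST-tagged yeast transcription factors at about 100-200 nM. Fluorescent anti-GST detected bound protein, and masliner normalised the scans.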

Row | Sequence | PBM E-score
1 | CTCGTCAG | -0.213
2 | CCGCTCTC | 0.0728
3 | ACATGCCA | -0.0815
4 | GGGGGAGA | 0.0467
5 | ATTCGACA | -0.191
6 | AGGACGGC | -0.0301
7 | AGCCGCGG | 0.361
8 | GCTAGGCA | -0.101
9 | ACACCTTC | 0.0333
10 | AGGAAGGA | -0.36
11 | AACCCTTA | -0.138
12 | TACAGCAA | -0.103
13 | CGGGTTCC | 0.294
14 | AACTGAAC | 0.0386
15 | CCAGCTGA | -0.132
16 | CATAAAAC | 0.0973
17 | ATATGACA | -0.225
18 | CTACCACA | -0.278
19 | CATGGCGA | -0.0973
20 | ATGTTGGG | -0.0409
21 | CCGCCTGC | 0.00278
22 | CCACTCAA | -0.274
23 | GAATTTAA | -0.0111
24 | GTCGCCAA | -0.254
25 | TCACAACA | -0.175

Row | Sequence | PBM E-score
26 | CATCTGTA | -0.209
27 | AGTGGCTC | -0.117
28 | AAGAACTA | -0.0398
29 | AGGTACAG | -0.258
30 | CACCAACA | -0.074
31 | GATATTGA | 0.0976
32 | TCGAGTCA | -0.195
33 | TAGAAACA | -0.168
34 | CTACGCAG | -0.155
35 | CGTCTGGC | 0.0246
36 | ATCGCAGC | -0.076
37 | GCTGTAAA | -0.312
38 | ATACACAA | -0.169
39 | AAACGGGG | 0.2
40 | CCGGCAGC | 0.322
41 | AGGCTCCG | 0.39
42 | CTTAATCA | 0.015
43 | AACGTTGC | -0.126
44 | AGCAGCGA | -0.0853
45 | ACGACATA | -0.293
46 | GCAAACCC | 0.153
47 | GTAAGGGA | -0.0823
48 | AAACGGGT | 0.0649
49 | CCTATAGG | -0.0702
50 | CACCGCCC | 0.218

Row | Sequence | PBM E-score
51 | CTTGCTGA | -0.226
52 | CGAGTGTA | -0.161
53 | CGCGAGTC | 0.129
54 | ACACGGAT | 0.199
55 | CTAGGACA | -0.135
56 | ACAATACT | -0.0192
57 | AAGCTTCA | -0.0959
58 | TGCATAAA | -0.105
59 | GGTTGTCA | -0.124
60 | AGGACCTC | -0.0432
61 | AAGACTCT | -0.202
62 | AGTTCCGA | 0.43
63 | ACTTCGTC | 0.0646
64 | GCATTTGA | 0.0329
65 | ACGGGGTA | 0.108
66 | CCGACTTC | 0.232
67 | AAAATTCC | 0.359
68 | CACGAAGC | -0.146
69 | ACTTGCCT | -0.136
70 | GTTTCCCA | 0.0145
71 | GATGCGAC | 0.0725
72 | CGCGGCAC | 0.212
73 | GAAACGTA | -0.0699
74 | CCGAGGAC | 0.216
75 | GAACAGCA | -0.0275

Row | Sequence | PBM E-score
76 | ACAGTCGT | -0.16
77 | GTGGCGAA | 0.0623
78 | ATGACAAC | -0.036
79 | AAGCGACT | -0.242
80 | GCTCAACA | -0.128
81 | TCAGGAGA | -0.0923
82 | CCGTAACG | 0.0779
83 | GAGGGAAC | 0.143
84 | GAGGTAAA | -0.038
85 | ACGGTATA | 0.0634
86 | GGAGAGCC | 0.0259
87 | AACGTGTC | -0.0761
88 | CCGCTCAC | 0.115
89 | ACGTTGGG | -0.329
90 | ATCCTGCC | -0.0966
91 | GCTTACAC | 0.0701
92 | GGAACAAC | 0.223
93 | CCGTCTGA | 0.081
94 | CCGTTTGA | 0.018
95 | ACTTAAGA | 0.0819
96 | GTGCGGCA | 0.0935
97 | ACAATAGC | -0.207
98 | AGGATGTC | -0.0871
99 | GAAACATA | 0.0768
100 | CGATGACA | 0.0615

Row | Sequence | PBM E-score
101 | CTGGCGGA | 0.183
102 | CTAGCCCA | -0.171
103 | AGTTCAGA | -0.236
104 | CGCTCACA | -0.149
105 | AGGACCTG | -0.186
106 | ATCAGCTA | -0.228
107 | ATAGACGA | -0.0361
108 | CCATGAAG | -0.0668
109 | GCGCACTA | 0.13
110 | GCGCGCCC | 0.202
111 | AAGTGAAA | -0.031
112 | CTACAACA | -0.174
113 | ACTATTGC | 0.0531
114 | AATGCGCC | 0.199
115 | GGAAGGCA | -0.0122
116 | CCATTTTA | 0.107
117 | CGTGGCCA | -0.315
118 | AACTTTCT | 0.0486
119 | ATTTCTCC | 0.33
120 | ATAGTAGC | 0.0024
121 | GGACGGCA | 0.211
122 | CGGATCGC | 0.259
123 | GTGTGACA | -0.215
124 | AAGCTGAA | -0.0151
125 | ACTTGCCG | 0.0488

Row | Sequence | PBM E-score
126 | ATCGAGTG | 0.0113
127 | GGAGCACC | 0.222
128 | AGTATGGC | -0.0866
129 | CTGACAAC | -0.245
130 | AGGTTTCG | -0.0904
131 | ATCAGGAC | -0.13
132 | ATCGCCGC | 0.295
133 | GTCCGCGA | 0.313
134 | AAGGTGCC | -0.0322
135 | GTTGATAA | -0.164
136 | GGCCTCCA | 0.0147
137 | ACGGCTTC | 0.1
138 | GAGAATGA | 0.0136
139 | CGACCACG | 0.0345
140 | CTGCAGCC | -0.0976
141 | ATACAAAT | 0.131
142 | TAATAGCA | -0.158
143 | ATTTCTTA | -0.0929
144 | GCCCCCGA | 0.0674
145 | ACTGTTGG | -0.239
146 | AGACGAAT | -0.244
147 | CGATGAAG | -0.0134
148 | AAGCATCG | -0.0405
149 | ATCTTCCG | 0.368
150 | ACCGATCT | 0.0759

Row | Sequence | PBM E-score
151 | CCGCAATC | 0.341
152 | AGAGTCTC | -0.0765
153 | CCTTAACA | -0.241
154 | AGGGGATA | -0.246
155 | ATTTAGTG | -0.0462
156 | ATGATATA | -0.207
157 | CTACTCCC | -0.0194
158 | AGGTGTAT | -0.0664
159 | ATAGCACA | -0.00117
160 | ACGGTTAC | 0.0356
161 | CGTAAACG | 0.0329
162 | CTTGGGAC | -0.0458
163 | CTACCGTA | -0.0269
164 | ACCGTTTC | 0.0963
165 | AAGTCTGT | -0.245
166 | GACCGCCC | 0.105
167 | CGGGTTGC | 0.164
168 | ATACGAAG | -0.0703
169 | AAATAAAC | -0.027
170 | CCGACAGC | 0.31
171 | CCCTTTAG | -0.366
172 | CTACTAGA | -0.122
173 | AAGACGAA | -0.147
174 | TAATGCAA | -0.295
175 | ATCTCTCC | 0.101

Row | Sequence | PBM E-score
176 | CAAATATG | -0.0141
177 | CTAACCAG | -0.232
178 | GCCAACGC | -0.0457
179 | GATCAATC | 0.0547
180 | AAACAGGA | -0.192
181 | CAGCGCTG | 0.112
182 | CCGTAGGA | 0.0462
183 | ATGGCTGG | -0.209
184 | ACATCCGT | 0.162
185 | CCGGGGTC | 0.356
186 | ATCAAGGC | -0.181
187 | ACGCAACA | -0.0277
188 | GATCACCA | -0.0494
189 | CTCAGCAC | -0.201
190 | CACCAGCA | -0.257
191 | AAACGGCC | 0.192
192 | CGGGTTGA | 0.0453
193 | CCTGGAAA | -0.0612
194 | GTGGAGAA | -0.0956
195 | TACGCGTA | 0.00948
196 | CCTTCGCA | -0.284
197 | GTTCCCTA | -0.177
198 | ACTACGAA | -0.295
199 | GCTACCTA | -0.0961
200 | GTGATGCA | -0.087

Row | Sequence | PBM E-score
201 | TCTTGTCA | -0.116
202 | CGATAATA | 0.142
203 | TAAATTTA | 0.107
204 | AACGTCCG | 0.346
205 | GATCACTA | 0.0608
206 | CGTCCGTC | 0.208
207 | AGTCCGCA | 0.372
208 | GAGCGGTA | 0.00737
209 | CTTCGTCC | -0.0559
210 | ACAAAAGA | 0.00318
211 | ATGGGTAC | -0.356
212 | TAAAGCGA | 0.148
213 | AACCATCT | -0.00923
214 | AGTTTAGG | -0.236
215 | CACGATGC | -0.161
216 | CGTTCGAA | -0.0287
217 | AATGCAGA | -0.106
218 | CCCCTCGC | -0.239
219 | GGACTACA | 0.0676
